From PubChem BioAssay AID624296 (National Center for Advancing Translational Sciences (NCATS), 2012)
About 9,900 (2.8%) of roughly 350,000 compounds were called active. This list was built around the results that the source calls inconclusive (neither active nor inactive); the mix of calls is not that of the screen. Calls come from the whole dose curve; as a rule, active = well fitted activation curve with a large enough effect; inconclusive = small, poorly fitted or top-dose-only effect; inactive = no such curve, though single readings can be large or run the other way. No potency is given beside an inconclusive call; the fits are too rough.

assay: A quantitative high throughput screen for small molecules that induce DNA re-replication in MCF 10a normal breast cells.; note: nearly all actives have a fitted effect of over 50% in size; for activity, positive = re-replication: % of control where 0% means no effect; details: MCF 10A DNA re-replication, Hoechst nuclear intensity, 48 h; activity, positive = re-replication: at 46.1 µM (top of the series)
Potency is the fitted concentration of half-maximal effect; tags give direction and shape of the fitted curve.

SMILES	Potency	activity, positive = re-replication
Cc1ccc(S(=O)(=O)N2CCC3(CC2)OCCN3S(=O)(=O)c2cccs2)cc1	inconclusive [activator, partial curve, poor fit]	–
C/C(=N\N=C1\NC(=O)C(CC(=O)Nc2ccc(C)c(Cl)c2)S1)C(C)(C)C (stereo not drawn)	inconclusive [activator, single point]	–
Cc1cc(C)cc(NC(=O)c2ccc3nc[nH]c3c2)c1	inconclusive [activator, single point]	–
Cc1cc(C(=O)COC(=O)c2ccc(Br)o2)c(C)n1C	–	inactive: -2.67%
C=C(C)COc1ccc(-c2[nH]ncc2Oc2ccccc2OCC)c(O)c1	active: 16.4 µM	–
CC(C)Nc1nc(Cl)nc(NN(C)c2nc(N(C)C)nc(N(C)C)n2)n1	inconclusive [activator, single point]	–
CCOC(=O)c1c(C)[nH]c(C(C)=O)c1C	–	inactive: 2.59%
COc1ccc(-c2nnc(NC(=O)c3ccc(S(=O)(=O)N(C)CC4CCCO4)cc3)o2)c(OC)c1 (stereo not drawn)	inconclusive [activator, partial curve]	–
O=C(Nc1cccc(Cl)c1)Nc1cccc(Cl)c1	inconclusive [activator, partial curve, poor fit]	–
CSC1=NCCN1C(=O)c1cccc(C(F)(F)F)c1	inconclusive [activator, single point]	–
CCOC(=O)c1c(O)cc(OC)cc1CCc1ccccc1	inconclusive [activator, partial curve, poor fit]	–
COc1ccc(N2C(=O)c3ccccc3NC2c2ccc(NC(C)=O)cc2)c(OC)c1 (stereo not drawn)	–	inactive: 6.15%
COc1cccc(N2CCN(C(=O)C3CCCN(S(=O)(=O)c4cnc[nH]4)C3)CC2)c1 (stereo not drawn)	inconclusive [activator, single point]	–
O=C(Nc1ccnn1C1CCNCC1)c1ccc2c(c1)OCO2	inconclusive [activator, partial curve, poor fit]	–
CC1CCCN(C(=S)SCC(=O)c2cc(Br)cc(Br)c2O)C1 (stereo not drawn)	inconclusive [activator, single point]	–
CC(=O)N(c1ccccc1)C(C(=O)c1ccccc1)c1ccccc1 (stereo not drawn)	–	inactive: -0.296%
CC1=CC2=C(OC1N(C)C)c1cccc3cccc(c13)C2=O (stereo not drawn)	–	inactive: 9.91%
C=CCNC(=O)/C(C#N)=C/c1c(N2CCN(c3ccccc3)CC2)nc2c(C)cccn2c1=O	inconclusive [activator, single point]	–
O=C(CSc1ccc(Cl)cc1Cl)N1CCC(c2nc3ccccc3s2)CC1	inconclusive [activator, single point]	–
c1ccc(-c2nnc(-c3ccncc3)o2)cc1	inconclusive [activator, partial curve]	–
CC1CCc2nc(NC(=O)Cc3cccs3)sc2C1 (stereo not drawn)	inconclusive [activator, single point]	–
Nc1ccc(CSc2ccc(Cl)cc2)c(Cl)c1	active: 20.6 µM	–
CCOCCCNC(=S)N(CCCN(C)C)Cc1cc2cc3c(cc2[nH]c1=O)OCCO3	inconclusive [activator, single point]	–

SMILES	Potency	activity, positive = re-replication
CCCCc1cc(C(=O)Cc2ccccn2)c(O)cc1O	–	inactive: 17%
COc1cccc(CC2(CO)CCCN(Cc3ccc(-c4ccco4)cc3)C2)c1 (stereo not drawn)	inconclusive [activator, single point]	–
CC(CCc1ccc(O)cc1)NCc1ccc(Br)cc1 (stereo not drawn)	inconclusive [activator, single point]	–
O=C(Nc1nc2c(s1)CN(Cc1ccccc1)CC2)C1CCCC1	inconclusive [activator, partial curve, poor fit]	–
CCCn1nnnc1NCc1ccccc1OCc1cccs1	–	inactive: -10.1%
COc1ccc(CC(=O)Nc2nc(-c3cc(OC)ccc3OC)cs2)cc1	inconclusive [activator, single point]	–
CCOc1c(Br)cc(C2CC(=O)Nc3cc(OC)c(OC)cc32)cc1OC (stereo not drawn)	–	inactive: 0.418%
CNc1nc(Cl)c(SC)c(N2CCOCC2)n1	inconclusive [activator, partial curve, poor fit]	–
CCn1c(SCC(=O)Nc2ccc(C)cc2)nnc1-c1ccc(O)cc1	inconclusive [activator, full curve, poor fit]	–
Cc1cccc(C)c1OCCCCn1cnc2ccccc2c1=O	inconclusive [activator, partial curve, poor fit]	–
COc1cccc(-c2nn(-c3ccccc3)cc2C(=O)n2nnc3ccccc32)c1	inconclusive [activator, partial curve, poor fit]	–
Cc1ccc2[nH]c(=O)c(CN(Cc3ccccc3)C(=S)NCCCN(C)C)cc2c1	inconclusive [activator, single point]	–
N#C/C(=C/c1ccc2c(c1)OCO2)C(=O)Nc1ccc(O)cc1	inconclusive [activator, partial curve, poor fit]	–
Cc1cc(-c2nn(-c3ccccc3F)cc2CN2CCCC(O)C2)c(C)s1 (stereo not drawn)	–	inactive: 21.9%
Cc1nn(Cc2ccccc2)c2c1C(c1cccc(Cl)c1)C(C#N)=C(N)O2 (stereo not drawn)	inconclusive [activator, single point]	–
COc1cccc(NC(=O)c2ccc(CN3CCN(c4ccccc4)CC3)cc2)c1	inconclusive [activator, partial curve, poor fit]	–
CCc1ccccc1N1CCN(S(=O)(=O)c2cc(OC)ccc2OC)CC1	inconclusive [activator, partial curve, poor fit]	–
CCCCNC(=O)COC(=O)c1ccc(NC(C)=O)cc1	–	inactive: -0.307%
COc1ncc(-c2ccc3c(c2)S(=O)(=O)c2cccc(C(=O)NCc4ccco4)c2C3=O)cn1	inconclusive [activator, full curve, poor fit]	–
CC(/C=C1\SC(=S)N(C(C(=O)O)c2ccccc2)C1=O)=C\c1ccccc1 (stereo not drawn)	inconclusive [activator, single point]	–
CN(NC(=O)c1ccccc1F)c1nc(C(F)(F)F)nc2ccccc12	inconclusive [activator, full curve, poor fit]	–
CCCCOc1ccc(S(=O)(=O)N2CCN(c3ccc(N4CCN(CC)CC4)nn3)CC2)cc1	inconclusive [activator, partial curve, poor fit]	–
Clc1ccc(C2[C@H]3CN(Cc4cccnc4)[C@H](c4ccccc4)C34CC2(c2ccccc2)C4)cn1 (stereo partly drawn)	inconclusive [activator, partial curve, poor fit]	–

SMILES	Potency	activity, positive = re-replication
O=C1C(c2ccccc2)NC(=S)N1C1CCCCC1 (stereo not drawn)	–	inactive: 0.711%
CCC(=O)NC(c1ccc(C)cc1)c1ccc2cccnc2c1O (stereo not drawn)	inconclusive [activator, single point]	–
NS(=O)(=O)c1ccc(N=Nc2c(O)[nH]c3ccc(Br)cc23)cc1	inconclusive [activator, single point]	–
CC1CC(=O)Nc2ccccc2N1C(=O)COc1cc(Cl)ccc1Cl (stereo not drawn)	inconclusive [activator, single point]	–
CCN(Cc1ccccc1)c1ccccc1	–	inactive: -33.1%
CCOC(=O)C1CCN(C(=O)CCc2ccccc2)CC1	inconclusive [activator, full curve, poor fit]	–
COC(=O)N1C(=O)[C@](c2ccccc2)(C(C)C)N1C(=O)OC	inconclusive [activator, single point]	–
CN1CCN(c2ccc(NC(=O)c3ccc(-c4ccc(Br)cc4)o3)cc2)CC1	inconclusive [activator, single point]	–
Cc1ccc(-n2ncc3c2CC(C)(C)CC3NC(=O)CCc2cnn(C)c2)cc1 (stereo not drawn)	inconclusive [activator, partial curve, poor fit]	–
O=C(CCN1C(=O)c2ccccc2C1=O)NC(=S)Nc1cccc(Cl)c1	–	inactive: -0.618%
O=C(CSc1nc2cc(Cl)ccc2o1)NCCc1ccccc1	inconclusive [activator, single point]	–
O=C(CSc1nnc2ccccn12)Nc1ccccc1Cl	–	inactive: -17.6%
COc1ccc(Cl)cc1NC(=O)C/C(C)=N/NC(=O)c1ccccc1Cl	inconclusive [activator, partial curve, poor fit]	–
Cc1ccc(S(=O)(=O)Nc2nc(CN3CCOCC3)nc3sc(C)c(C)c23)cc1	inconclusive [activator, single point]	–
COc1cccc(/C=C2/C(=O)NN(c3ccc(F)cc3)C2=O)c1	inconclusive [activator, single point]	–
O=C(Cc1ccc(F)cc1)N1CCN(c2ccc([N+](=O)[O-])cc2)CC1	–	inactive: 1.95%
CCCc1cc(=O)[nH]c(SCC)n1	inconclusive [activator, partial curve, poor fit]	–
CNC(=O)c1[nH]cnc1C(=O)Nc1ccccn1	–	inactive: -9.9%
CCC(C)(C)n1nnnc1CN(Cc1cccs1)Cc1cc2cc(OC)ccc2[nH]c1=O	inconclusive [activator, single point]	–
CN(Cc1ccc(F)cc1)C(=O)CNC(=O)c1ccc2c(c1)OCO2	–	inactive: -0.589%
CCCCCCCCNCCS(=O)(=O)NCc1ccc(OC)cc1	inconclusive [activator, single point]	–
O=C(c1ccc(Cl)cc1)N1CCC2CC1c1cc(-c3ccccc3)ccc12 (stereo not drawn)	inconclusive [activator, single point]	–
